According to PubChem BioAssay AID1468 (National Center for Advancing Translational Sciences (NCATS), 2008):
In all, about 280,000 compounds went through this assay and about 1,100 (0.39%) were called active. Inconclusive means that the source gave no clear call. Such entries were picked first, then a sample of the others. Calls come from the whole dose curve; as a rule, active = well fitted inhibition curve with a large enough effect; inconclusive = small, poorly fitted or top-dose-only effect, or effect the other way; inactive = flat fitted curve, though single readings scatter. No potency is given beside an inconclusive call; the fits are too rough.

Target: Microtubule-associated protein tau (Homo sapiens) (UniProt P10636)
UniProt P10636, sequence (P10636 whole entry, looked up): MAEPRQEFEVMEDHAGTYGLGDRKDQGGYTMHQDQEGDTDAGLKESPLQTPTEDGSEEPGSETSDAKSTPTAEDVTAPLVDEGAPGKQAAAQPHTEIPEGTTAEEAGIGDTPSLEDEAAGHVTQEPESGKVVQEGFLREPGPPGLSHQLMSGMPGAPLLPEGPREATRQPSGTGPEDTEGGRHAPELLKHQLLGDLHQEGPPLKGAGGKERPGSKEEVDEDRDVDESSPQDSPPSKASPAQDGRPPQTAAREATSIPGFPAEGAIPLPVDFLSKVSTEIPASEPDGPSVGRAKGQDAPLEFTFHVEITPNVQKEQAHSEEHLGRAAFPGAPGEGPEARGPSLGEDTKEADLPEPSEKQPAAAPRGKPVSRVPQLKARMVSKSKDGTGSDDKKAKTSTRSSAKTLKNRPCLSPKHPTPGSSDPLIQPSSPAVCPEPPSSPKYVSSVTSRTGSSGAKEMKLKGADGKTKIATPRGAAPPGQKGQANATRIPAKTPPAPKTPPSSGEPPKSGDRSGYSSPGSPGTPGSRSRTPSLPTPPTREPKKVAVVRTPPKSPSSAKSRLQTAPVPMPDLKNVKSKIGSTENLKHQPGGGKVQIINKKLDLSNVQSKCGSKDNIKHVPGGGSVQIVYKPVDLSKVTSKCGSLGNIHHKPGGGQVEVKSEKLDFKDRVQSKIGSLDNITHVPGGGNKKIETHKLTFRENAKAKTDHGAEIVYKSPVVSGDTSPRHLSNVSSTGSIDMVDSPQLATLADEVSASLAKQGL
Experiment: qHTS for Inhibitors of Tau Fibril Formation, Fluorescence Polarization; note: nearly all actives have a fitted effect of over 55% in size
Settings: K18 P301L tau heparin fibrillization, Alexa594 FP, 6 h; series mostly up to 57.7 µM
How it was run: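 Steps: dispense K18 P301L tau (15 uM plus 0.24 uM Alexa 594 tracer, final) in pH 7 sodium acetate; add compound; add heparin (20 uM final); incubate 6 hr, 37 C; add ThT (30 uM final); after 1 hr ambient, read FP.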
% is set by controls: 0 for no effect and ±100 for the full control effect; potency is the fitted concentration of half-maximal effect; tags give direction and shape of the fitted curve.

SMILES	Potency	activity, negative = inhibition
O=C(N/N=C1/C[C@@H](O)[C@@H](O)[C@@H]2[C@@H]3C(=O)N(c4cccc(Oc5ccccc5)c4)C(=O)[C@H]3CC[C@H]12)OCc1ccccc1	inconclusive [inhibitor, full curve, poor fit]	–
CC1(C)CC(=O)c2cnc3nc4ccccc4n3c2C1	inconclusive [inhibitor, single point]	–
CC(C)c1ccc(NS(=O)(=O)c2ccc3[nH]cc(C(=O)NCC4CCCO4)c(=O)c3c2)cc1 (stereo unspecified)	active: 15.8 µM	–
CCOc1ccc2nc(N3CCCC(C(=O)Nc4ccc(OC)c(Cl)c4)C3)sc2c1 (stereo unspecified)	inconclusive [activator, full curve]	–
C[C@H]1C(c2ccc(F)cc2)=NN(c2ccccc2)[C@@H]1CO	inconclusive [activator, partial curve]	–
CS(=O)(=O)c1ccc(C(=O)OCC(=O)NC23CC4CC(CC(C4)C2)C3)cc1[N+](=O)[O-]	inconclusive [activator, single point]	–
COc1ccc(C2=NNC(c3cccs3)=Nc3ccc(OC)cc32)cc1	inactive	–
CCOc1cc(CNc2ccc(N3CCCC3)cc2)cc(Cl)c1OC	active: 7.08 µM	–
Cc1ccc(S(=O)(=O)N(C)C)cc1-n1c(SCC(=O)Nc2ccc(F)c(F)c2F)nc2ccccc2c1=O	inconclusive [inhibitor, single point]	–
O=C1/C(=C\c2ccco2)SC(=S)N1c1ccccc1	inconclusive [inhibitor, single point]	–
O=C(CSc1nc(-c2ccccc2)c(-c2ccccc2)o1)Nc1nncs1	inconclusive [inhibitor, full curve]	–
O=C1NC(c2ccco2)Nc2sc3c(c21)CCN(Cc1ccccc1)C3 (stereo unspecified)	inconclusive [inhibitor, partial curve]	–
COc1ccc(OC)c(C2C3CN(C(C)C)CC=C3C(C#N)=C(N)C2(C#N)C#N)c1 (stereo unspecified)	inconclusive [inhibitor, partial curve]	–
Cc1ccc2cc(C3C(C#N)=C(N)Oc4c3ccc3cccnc43)c(=O)[nH]c2c1 (stereo unspecified)	inconclusive [inhibitor, single point]	–
O=C1[C@H]2[C@H]3[C@H](O)[C@H](O)C/C(=N/OCc4ccccc4)[C@@H]3CC[C@@H]2C(=O)N1C1CCCCC1	–	inactive: 1.95% [at 11.6 µM]
O=C(CN1CCN(C(=O)c2ccco2)CC1)N1CCc2[nH]c3ccccc3c2C1	inactive	–
CC1CCN(C(=O)CCc2nc3cc(S(=O)(=O)N(C)C)ccc3n2C)CC1	inactive	–
N#CCc1ccc(NC(=O)Nc2cccc(Cl)c2)cc1	inconclusive [inhibitor, partial curve]	–
Cc1ccc(C(C[N+](=O)[O-])c2c(-c3ccccc3O)[nH][nH]c2=O)cc1 (stereo unspecified)	inconclusive [inhibitor, partial curve, poor fit]	–
CCOc1ccc(CCn2c(-c3ccco3)nc3ccccc3c2=O)cc1OCC	inactive	–
CCN1CCN(C(c2ccc(SC)cc2)c2c(O)cc(C)n(Cc3ccco3)c2=O)CC1 (stereo unspecified)	inconclusive [inhibitor, single point]	–

SMILES	Potency	activity, negative = inhibition
Oc1ccc(-c2nc(-c3ccccc3)c(-c3ccc(Br)cc3)[nH]2)cc1	inconclusive [inhibitor, single point]	–
CCOC(=O)c1c(-c2ccc(C)cc2)csc1NC(=S)NC(=O)c1ccccc1	inconclusive [inhibitor, partial curve, poor fit]	–
CCOC(=O)CSc1nc(C(C)(C)C)cc(C(F)(F)F)c1C#N	inactive	–
Cc1ccc(NC(=S)NNc2ccc([N+](=O)[O-])cc2S(=O)(=O)Nc2ccccc2C(=O)O)cc1C	inconclusive [inhibitor, single point]	–
Cc1ccc2nc(C3CCN(S(=O)(=O)c4ccc5ccccc5c4)CC3)[nH]c2c1	inconclusive [inhibitor, single point]	–
CC(/C=C/c1ccco1)=N\NC(=O)CNc1ccc2ccccc2c1	inactive	–
CCn1cc(C(=O)O)c(=O)c2cnc(N3CCN(C(=S)Nc4ccccc4C(F)(F)F)CC3)nc21	inactive	–
COCCN(C(=S)Nc1c(C)cccc1C)C(C)c1cccs1 (stereo unspecified)	inconclusive [inhibitor, single point]	–
CNc1ccc(SC#N)cc1	inconclusive [inhibitor, partial curve]	–
Cc1ccc(C(=O)N2CCc3cc(CNC(=O)CSc4ccccc4)ccc32)cc1	inactive	–
O=C(Nc1ccccc1)Nc1cccc(Cl)c1	inconclusive [inhibitor, single point]	–
O=C(CSc1nc(-c2ccccc2)c(-c2ccccc2)[nH]1)N1CCN(S(=O)(=O)c2ccccc2)CC1	inconclusive [activator, single point]	–
CC1=C(C(=O)Nc2ccccc2)C(c2ccccc2C)n2nc(SCC(=O)c3ccc(C)cc3)nc2N1 (stereo unspecified)	inactive	–
O=C(NCCc1csc(-c2ccc(C(F)(F)F)cc2)n1)c1ccc(F)c(F)c1	inconclusive [inhibitor, single point]	–
COc1ccc(NC(=S)NC2CCCCC2)c(OC)c1	inactive	–
COC(=O)c1c(-c2cccs2)csc1NC(=O)c1cccc(Cl)c1	inconclusive [inhibitor, single point]	–
COC(=O)c1c(-c2cccs2)csc1NC(=O)c1ccc(Br)cc1	inconclusive [inhibitor, partial curve]	–
O=C(CC1CC2CCC1C2)OCC(=O)c1c[nH]c2ccccc12 (stereo unspecified)	inconclusive [inhibitor, partial curve]	–
Cc1c(Cc2ccc3c(c2)OCO3)sc(NC(=O)c2ccc3ccccc3c2)c1C(N)=O	inconclusive [inhibitor, partial curve]	–
COc1cccc(-n2cc(C(=O)Nc3cccc(C(F)(F)F)c3)c3ccccc3c2=O)c1	inactive	–
